Measured values reported in patent publication US20140348747A1.

Experiments:
Conditions in all cases: modification not given
[1] = molecular target: T1, NLpoly 5P (3P + D108N + N144T)
T1 chain: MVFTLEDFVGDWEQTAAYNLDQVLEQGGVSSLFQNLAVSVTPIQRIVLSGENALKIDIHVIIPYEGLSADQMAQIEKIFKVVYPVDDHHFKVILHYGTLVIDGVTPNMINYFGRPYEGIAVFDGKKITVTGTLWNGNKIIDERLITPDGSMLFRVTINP

[2] = molecular target: T1, NLpoly 5P (3P + D108N + N144T)
[3] = molecular target: T1, NLpoly 5P (3P + D108N + N144T)
[4] = molecular target: T1, NLpoly 5P (3P + D108N + N144T)
[5] = molecular target: T1, NLpoly 5P (3P + D108N + N144T)

B1: NLpep78 (peptide)
chain: NVSGWRLFKKISN
Question: B1 was tested. Which Kd [1] did it give?
Answer: Its Kd is 17.8 nM.

Question: And the Kd [2]?
Answer: Its Kd is 15 nM.

Question: What about the Kd [3] of the same binder?
Answer: The Kd was 8.4 nM and 9.6 nM.

Question: And the Kd [4]?
Answer: Its Kd is 9 nM.

Question: What about the Kd [5] of the same binder?
Answer: The Kd was 18 nM.

Several values for one entry are separate records, joined by “and”; a condition that tells them apart may be missing. Identical values can stand only once. Like-named read-outs stand apart in the source and are kept apart here.
